Experimental data published in paper PMC4346921, “Identification of the Specific Interactors of the Human Lariat RNA Debranching Enzyme 1 Protein” (International Journal of Molecular Sciences, 2015).
Results are given in words; binding and its absence hold for the method and conditions named. Binding seen in cells or lysates may run through a third protein. Some entries that bind do so weakly or less than the wild type. Where a sequence is shown, tags or fusion partners need not be part of it.

Tests used:
[1] = target: T1, GST-yeast Dbr1 (GST-yDbr1) (yeast) (UniProt P24309); test: pull-down; 5 μg GST or GST fusion protein immobilised on glutathione beads; [35S]methionine-labelled in vitro translated protein added in 50 mM Tris-HCl pH 7.4, 200 mM NaCl, 2 mM EDTA, 0.1% NP-40, 4 °C, 1 h; five washes; SDS-PAGE and fluorography; only the target purified
T1 sequence: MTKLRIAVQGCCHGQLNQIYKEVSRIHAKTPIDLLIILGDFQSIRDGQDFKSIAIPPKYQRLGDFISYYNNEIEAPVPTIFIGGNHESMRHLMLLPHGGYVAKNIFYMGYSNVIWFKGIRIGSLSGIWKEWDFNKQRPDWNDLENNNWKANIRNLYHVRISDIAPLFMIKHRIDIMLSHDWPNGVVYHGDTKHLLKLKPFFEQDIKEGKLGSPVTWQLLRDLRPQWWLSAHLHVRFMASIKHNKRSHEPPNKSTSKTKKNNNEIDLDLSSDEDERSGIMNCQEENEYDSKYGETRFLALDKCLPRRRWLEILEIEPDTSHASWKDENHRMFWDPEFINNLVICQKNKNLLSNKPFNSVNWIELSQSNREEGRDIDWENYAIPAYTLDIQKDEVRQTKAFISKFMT

GST-hDbr1 = target: T2, GST-hDbr1 (human, UniProt Q9UK59-1 1-544); test: as above
T2 construct: human Dbr1, cDNA NM_016216 inserted into BamHI and XhoI sites of GEX-6P-1; also called GST-hDbr1 protein; recombinant Dbr1 protein fused to GST; source: E. coli BL21 (DE3) CodonPlus-RIPL, purified (Glutathione Sepharose)
T2 sequence (looked up): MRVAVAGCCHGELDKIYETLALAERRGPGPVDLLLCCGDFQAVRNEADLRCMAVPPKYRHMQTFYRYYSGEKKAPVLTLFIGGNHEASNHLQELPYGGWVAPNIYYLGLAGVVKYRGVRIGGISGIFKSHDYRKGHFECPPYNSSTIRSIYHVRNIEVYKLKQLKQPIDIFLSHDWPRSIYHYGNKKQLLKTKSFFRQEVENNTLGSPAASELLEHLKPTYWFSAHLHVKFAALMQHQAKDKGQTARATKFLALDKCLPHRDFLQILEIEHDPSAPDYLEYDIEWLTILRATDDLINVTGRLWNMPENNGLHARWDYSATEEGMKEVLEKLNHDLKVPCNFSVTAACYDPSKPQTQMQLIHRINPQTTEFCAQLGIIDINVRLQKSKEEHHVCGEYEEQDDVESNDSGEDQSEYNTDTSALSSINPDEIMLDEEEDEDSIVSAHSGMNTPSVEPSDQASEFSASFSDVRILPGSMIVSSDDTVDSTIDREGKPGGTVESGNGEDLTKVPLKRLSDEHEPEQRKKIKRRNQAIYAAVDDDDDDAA

T7-His-hDrn1 (human) = target: T3, T7-His-hDrn1 (human) (UniProt Q69YN2); test: pull-down; 2 μg T7-His-hDrn1 immobilised by anti-T7 tag antibody on magnetic protein A beads; [35S]methionine-labelled in vitro translated myc-PK fusions added in 50 mM Tris-HCl pH 7.4, 200 mM NaCl, 2 mM EDTA, 0.1% NP-40, 4 °C, 1 h; five washes; SDS-PAGE and fluorography; only the target purified
T3 sequence: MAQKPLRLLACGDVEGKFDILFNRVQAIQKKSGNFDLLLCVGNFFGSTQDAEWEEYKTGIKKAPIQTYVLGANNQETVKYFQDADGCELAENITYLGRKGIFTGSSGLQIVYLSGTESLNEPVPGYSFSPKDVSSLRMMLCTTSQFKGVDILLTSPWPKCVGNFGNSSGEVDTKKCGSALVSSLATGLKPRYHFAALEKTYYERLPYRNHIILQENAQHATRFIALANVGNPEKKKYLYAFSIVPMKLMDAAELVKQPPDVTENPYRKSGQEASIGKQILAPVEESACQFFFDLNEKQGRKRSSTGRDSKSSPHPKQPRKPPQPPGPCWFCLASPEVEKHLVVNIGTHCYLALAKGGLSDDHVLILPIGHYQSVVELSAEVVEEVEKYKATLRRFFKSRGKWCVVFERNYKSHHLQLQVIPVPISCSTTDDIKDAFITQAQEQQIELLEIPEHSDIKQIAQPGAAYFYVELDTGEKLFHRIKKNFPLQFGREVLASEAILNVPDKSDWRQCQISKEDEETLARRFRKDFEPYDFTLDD

B1: myc-tagged hDrn1, in vitro translated (protein, UniProt Q69YN2-1 1-538)
chain: MAQKPLRLLACGDVEGKFDILFNRVQAIQKKSGNFDLLLCVGNFFGSTQDAEWEEYKTGIKKAPIQTYVLGANNQETVKYFQDADGCELAENITYLGRKGIFTGSSGLQIVYLSGTESLNEPVPGYSFSPKDVSSLRMMLCTTSQFKGVDILLTSPWPKCVGNFGNSSGEVDTKKCGSALVSSLATGLKPRYHFAALEKTYYERLPYRNHIILQENAQHATRFIALANVGNPEKKKYLYAFSIVPMKLMDAAELVKQPPDVTENPYRKSGQEASIGKQILAPVEESACQFFFDLNEKQGRKRSSTGRDSKSSPHPKQPRKPPQPPGPCWFCLASPEVEKHLVVNIGTHCYLALAKGGLSDDHVLILPIGHYQSVVELSAEVVEEVEKYKATLRRFFKSRGKWCVVFERNYKSHHLQLQVIPVPISCSTTDDIKDAFITQAQEQQIELLEIPEHSDIKQIAQPGAAYFYVELDTGEKLFHRIKKNFPLQFGREVLASEAILNVPDKSDWRQCQISKEDEETLARRFRKDFEPYDFTLDD
- binding [1]: no binding
- binding (GST-hDbr1): binds

B2: myc-tagged yDrn1, in vitro translated (protein, UniProt P53255 1-507)
chain: MTNAKILVAHISESDADEAIRKIKKVNEKSGPFDLIIIFSNSYDENFELNTDGLPQLILLSCDKANNSKSKKINENVTLLHNMGTYKLANGITLSYFIYPDDTLQGEKKSILDEFGKSEDQVDILLTKEWGLSISERCGRLSGSEVVDELAKKLQARYHFAFSDEINFYELEPFQWERERLSRFLNIPKYGSGKKWAYAFNMPIGDNELKDEPEPPNLIANPYNSVVTNSNKRPLETETENSFDGDKQVLANREKNENKKIRTILPSSCHFCFSNPNLEDHMIISIGKLVYLTTAKGPLSVPKGDMDISGHCLIIPIEHIPKLDPSKNAELTQSILAYEASLVKMNYIKFDMCTIVFEIQSERSIHFHKQVIPVPKYLVLKFCSALDRQVHFNNEKFTRNAKLEFQCYDSHSSKQYVDVINNQSNNYLQFTVYETPEADPKIYLATFNASETIDLQFGRRVLAFLLNLPRRVKWNSSTCLQTKQQETIEAEKFQKAYRTYDISLTEN
- binding [1]: binds
- binding (GST-hDbr1): no binding

B3: myc-PK hDbr1 (aa. 1–544) (enzyme, UniProt Q9UK59-1 1-544)
chain: MRVAVAGCCHGELDKIYETLALAERRGPGPVDLLLCCGDFQAVRNEADLRCMAVPPKYRHMQTFYRYYSGEKKAPVLTLFIGGNHEASNHLQELPYGGWVAPNIYYLGLAGVVKYRGVRIGGISGIFKSHDYRKGHFECPPYNSSTIRSIYHVRNIEVYKLKQLKQPIDIFLSHDWPRSIYHYGNKKQLLKTKSFFRQEVENNTLGSPAASELLEHLKPTYWFSAHLHVKFAALMQHQAKDKGQTARATKFLALDKCLPHRDFLQILEIEHDPSAPDYLEYDIEWLTILRATDDLINVTGRLWNMPENNGLHARWDYSATEEGMKEVLEKLNHDLKVPCNFSVTAACYDPSKPQTQMQLIHRINPQTTEFCAQLGIIDINVRLQKSKEEHHVCGEYEEQDDVESNDSGEDQSEYNTDTSALSSINPDEIMLDEEEDEDSIVSAHSGMNTPSVEPSDQASEFSASFSDVRILPGSMIVSSDDTVDSTIDREGKPGGTVESGNGEDLTKVPLKRLSDEHEPEQRKKIKRRNQAIYAAVDDDDDDAA
- binding (T7-His-hDrn1 (human)): binds

B4: myc-PK hDbr1 (aa. 241–544) (domain or fragment, UniProt Q9UK59-1 241-544)
chain: DKGQTARATKFLALDKCLPHRDFLQILEIEHDPSAPDYLEYDIEWLTILRATDDLINVTGRLWNMPENNGLHARWDYSATEEGMKEVLEKLNHDLKVPCNFSVTAACYDPSKPQTQMQLIHRINPQTTEFCAQLGIIDINVRLQKSKEEHHVCGEYEEQDDVESNDSGEDQSEYNTDTSALSSINPDEIMLDEEEDEDSIVSAHSGMNTPSVEPSDQASEFSASFSDVRILPGSMIVSSDDTVDSTIDREGKPGGTVESGNGEDLTKVPLKRLSDEHEPEQRKKIKRRNQAIYAAVDDDDDDAA
- binding (T7-His-hDrn1 (human)): binds

B5: myc-PK hDrn1 (aa. 1–538) (protein, UniProt Q69YN2-1 1-538)
chain: MAQKPLRLLACGDVEGKFDILFNRVQAIQKKSGNFDLLLCVGNFFGSTQDAEWEEYKTGIKKAPIQTYVLGANNQETVKYFQDADGCELAENITYLGRKGIFTGSSGLQIVYLSGTESLNEPVPGYSFSPKDVSSLRMMLCTTSQFKGVDILLTSPWPKCVGNFGNSSGEVDTKKCGSALVSSLATGLKPRYHFAALEKTYYERLPYRNHIILQENAQHATRFIALANVGNPEKKKYLYAFSIVPMKLMDAAELVKQPPDVTENPYRKSGQEASIGKQILAPVEESACQFFFDLNEKQGRKRSSTGRDSKSSPHPKQPRKPPQPPGPCWFCLASPEVEKHLVVNIGTHCYLALAKGGLSDDHVLILPIGHYQSVVELSAEVVEEVEKYKATLRRFFKSRGKWCVVFERNYKSHHLQLQVIPVPISCSTTDDIKDAFITQAQEQQIELLEIPEHSDIKQIAQPGAAYFYVELDTGEKLFHRIKKNFPLQFGREVLASEAILNVPDKSDWRQCQISKEDEETLARRFRKDFEPYDFTLDD
- binding (GST-hDbr1): binds

B6: myc-PK hDrn1 (aa. 1–268) (domain or fragment, UniProt Q69YN2-1 1-268)
chain: MAQKPLRLLACGDVEGKFDILFNRVQAIQKKSGNFDLLLCVGNFFGSTQDAEWEEYKTGIKKAPIQTYVLGANNQETVKYFQDADGCELAENITYLGRKGIFTGSSGLQIVYLSGTESLNEPVPGYSFSPKDVSSLRMMLCTTSQFKGVDILLTSPWPKCVGNFGNSSGEVDTKKCGSALVSSLATGLKPRYHFAALEKTYYERLPYRNHIILQENAQHATRFIALANVGNPEKKKYLYAFSIVPMKLMDAAELVKQPPDVTENPYRK
- binding (GST-hDbr1): binds

B7: Flag-tagged Xab2, in vitro translated (protein, UniProt Q9HCS7 1-855)
chain: MVVMARLSRPERPDLVFEEEDLPYEEEIMRNQFSVKCWLRYIEFKQGAPKPRLNQLYERALKLLPCSYKLWYRYLKARRAQVKHRCVTDPAYEDVNNCHERAFVFMHKMPRLWLDYCQFLMDQGRVTHTRRTFDRALRALPITQHSRIWPLYLRFLRSHPLPETAVRGYRRFLKLSPESAEEYIEYLKSSDRLDEAAQRLATVVNDERFVSKAGKSNYQLWHELCDLISQNPDKVQSLNVDAIIRGGLTRFTDQLGKLWCSLADYYIRSGHFEKARDVYEEAIRTVMTVRDFTQVFDSYAQFEESMIAAKMETASELGREEEDDVDLELRLARFEQLISRRPLLLNSVLLRQNPHHVHEWHKRVALHQGRPREIINTYTEAVQTVDPFKATGKPHTLWVAFAKFYEDNGQLDDARVILEKATKVNFKQVDDLASVWCQCGELELRHENYDEALRLLRKATALPARRAEYFDGSEPVQNRVYKSLKVWSMLADLEESLGTFQSTKAVYDRILDLRIATPQIVINYAMFLEEHKYFEESFKAYERGISLFKWPNVSDIWSTYLTKFIARYGGRKLERARDLFEQALDGCPPKYAKTLYLLYAQLEEEWGLARHAMAVYERATRAVEPAQQYDMFNIYIKRAAEIYGVTHTRGIYQKAIEVLSDEHAREMCLRFADMECKLGEIDRARAIYSFCSQICDPRTTGAFWQTWKDFEVRHGNEDTIKEMLRIRRSVQATYNTQVNFMASQMLKVSGSATGTVSDLAPGQSGMDDMKLLEQRAEQLAAEAERDQPLRAQSKILFVRSDASREELAELAQQVNPEEIQLGEDEDEDEMDLEPNEVRLEQQSVPAAVFGSLKED
- binding (GST-hDbr1): binds

B8: myc-PK hDbr1 (aa. 1–240) (domain or fragment, UniProt Q9UK59-1 1-240)
chain: MRVAVAGCCHGELDKIYETLALAERRGPGPVDLLLCCGDFQAVRNEADLRCMAVPPKYRHMQTFYRYYSGEKKAPVLTLFIGGNHEASNHLQELPYGGWVAPNIYYLGLAGVVKYRGVRIGGISGIFKSHDYRKGHFECPPYNSSTIRSIYHVRNIEVYKLKQLKQPIDIFLSHDWPRSIYHYGNKKQLLKTKSFFRQEVENNTLGSPAASELLEHLKPTYWFSAHLHVKFAALMQHQAK
- binding (T7-His-hDrn1 (human)): no binding
